According to PubChem BioAssay AID624296 (National Center for Advancing Translational Sciences (NCATS), 2012):
Hit rate of the full screen: of about 350,000 compounds, about 9,900 (2.8%) were called active. Inconclusive means that the source gave no clear call. Such entries were picked first, then a sample of the others. Calls follow the shape of the dose curve; as a rule, active = well fitted activation curve with a large enough effect; inconclusive = small, poorly fitted or top-dose-only effect; inactive = no such curve, though single readings can be large or run the other way. No potency is given beside an inconclusive call; the fits are too rough.

Assay: A quantitative high throughput screen for small molecules that induce DNA re-replication in MCF 10a normal breast cells. Also: nearly all actives have a fitted effect of over 50% in size. As to activity, positive = re-replication: % of control where 0% means no effect.
Details: MCF 10A DNA re-replication, Hoechst nuclear intensity, 48 h; activity, positive = re-replication: at 46.1 µM (top of the series)
Potency is read from the fitted curve at half-maximal effect; tags tell the direction and shape of the fitted curve.

| SMILES | Potency | activity, positive = re-replication |
| --- | --- | --- |
| COc1ccc(-c2[nH]ncc2CN2CCC(C(=O)c3ccc(F)cc3)CC2)cc1 | inconclusive [activator, partial curve, poor fit] |  |
| Cc1cc2cc(CCNC(=O)c3ccc(C)c([N+](=O)[O-])c3)c(=O)[nH]c2cc1C | inconclusive [activator, partial curve, poor fit] |  |
| CCn1c(C)cc(/C=C2/SC(=O)N(C(C)C(=O)OC)C2=O)c1C (stereo unspecified) | inconclusive [activator, single point] |  |
| COC(=O)c1ccc(N2NC(=O)/C(=C/c3cc(OC)c(OC)c(OC)c3)C2=O)cc1 | inconclusive [activator, single point] |  |
| COCC(C)n1c(C)cc(C(=O)Cn2c(=O)oc3ccccc32)c1C (stereo unspecified) | inconclusive [activator, single point] |  |
| CN(C)Cc1cn(CCC(=O)O)c2ccccc12 | inconclusive [activator, partial curve, poor fit] |  |
| O=C(CSc1nc2ccc(Cl)cc2[nH]1)NC1CCCc2ccccc21 (stereo unspecified) | inconclusive [activator, single point] |  |
| CN(C)/C=C/C(=O)c1c(F)cccc1F |  | inactive: -2.31% |
| O=C(CCSc1nc2ccccc2s1)N/N=C/c1c(O)ccc2ccccc12 | active: 20.6 µM |  |
| COc1ccc(CNCC(O)(c2ccc(F)cc2)c2ccc(F)cc2)cc1 | inconclusive [activator, single point] |  |
| Cc1ccc(C2=NOC(=O)/C2=C\c2ccc(C)o2)cc1 | active: 16.4 µM |  |
| Cc1c(O)ccc(C(=O)CN2C(=O)c3ccccc3C2=O)c1O |  | inactive: 13.1% |
| COc1ccc(/C=N/OCC(=O)Nc2nc3ccccc3s2)cc1OC |  | inactive: -1.5% |
| O=c1c(Cc2ccccc2)c(O)ccn1C1CCCCCCC1 | inconclusive [activator, partial curve, poor fit] |  |
| COC(=O)c1sccc1NC(=S)N1CCCCC1 |  | inactive: 0.103% |
| COc1ccc(CN2C(=O)c3cccnc3C2=O)cc1S(=O)(=O)NCc1ccco1 | inconclusive [activator, single point] |  |
| O=C1C(Br)=C(c2ccccc2)C(c2ccccc2)=C1c1ccccc1 | active: 3.66 µM |  |
| CC(C)N(C(=O)[C@H]1C[C@H](CC(=O)NCc2ccco2)C(=O)N2CCc3c([nH]c4cc(-c5ccco5)ccc34)[C@]12C)C(C)C | inconclusive [activator, single point] |  |
| O=S(=O)(NC1CCc2ccccc21)c1ccc(S(=O)(=O)N2CCCC2)cc1 (stereo unspecified) | inconclusive [activator, single point] |  |
| COc1cccc2cc(C(=O)C3=C(O)C(=O)N(c4cc(C)on4)C3c3cccs3)oc12 (stereo unspecified) |  | inactive: -16.3% |
| CC(=O)N1c2ccccc2Nc2ccccc21 | inconclusive [activator, partial curve, poor fit] |  |
| CC(/C=N/n1c(-c2ccncc2)n[nH]c1=S)=C\c1ccco1 |  | inactive: 2.23% |
| CCCSc1ncnc2sc(C)c(C)c12 | inconclusive [activator, single point] |  |

| SMILES | Potency | activity, positive = re-replication |
| --- | --- | --- |
| COc1cc(F)cc(C2=CC(=O)C[C@H](c3ccc(F)cc3)C2)c1 | inconclusive [activator, single point] |  |
| COc1cc2c(cc1OC)C(c1cccc(Cl)c1Cl)CC(=O)N2 (stereo unspecified) | inconclusive [activator, partial curve, poor fit] |  |
| CC1CCc2nc3ccccc3c(C(=O)OCC(=O)N(C)C3CCS(=O)(=O)C3)c2C1 (stereo unspecified) |  | inactive: 7.04% |
| Cn1nnnc1SCCNCc1ccncc1 |  | inactive: -10.9% |
| O=C1CC(c2ccc(F)cc2)Cc2nc(NCc3ccco3)ncc21 (stereo unspecified) | inconclusive [activator, single point] |  |
| CC(C)(C)c1ccc(Cn2c(=O)cnc3ccccc32)cc1 | active: 14.6 µM |  |
| Cc1ccccc1-n1c(C)nnc1SCC(=O)N(C)C1CCS(=O)(=O)C1 (stereo unspecified) | inconclusive [activator, single point] |  |
| Cc1ccc(CSc2nnc(-c3cccc(S(=O)(=O)N4CCOCC4)c3)n2CC(C)C)cc1 |  | inactive: 24% |
| Cc1ccc(NC(=O)COC(=O)COc2cccc3c2OC(C)(C)C3)c(C)c1 |  | inactive: -0.828% |
| CC(NC(=O)COC(=O)c1ccc(CO)cc1)C1CC2CCC1C2 (stereo unspecified) |  | inactive: 1.04% |
| O=C1C2C3C=CC(C3)C2C(=O)N1/N=C/c1cn(Cc2ccccc2)c2ccccc12 (stereo unspecified) | inconclusive [activator, full curve, poor fit] |  |
| COC(=O)c1ccccc1N=Nc1c(N)n[nH]c1N |  | inactive: -3.68% |
| COc1ccc(/C=N/N2CCN(C)CC2)c(OC)c1OC |  | inactive: -6.01% |
| CCCCc1ccc(-n2nnnc2SCC(=O)Nc2cc(OC)c([N+](=O)[O-])cc2C)cc1 | inconclusive [activator, single point] |  |
| CCOc1ccc(C2=Nn3c(nnc3-c3ccc(OC)cc3)SC2)cc1 | inconclusive [activator, partial curve, poor fit] |  |
| COc1cc(C(=O)NC2CCCc3ccccc32)cc(OC)c1C (stereo unspecified) |  | inactive: 1.26% |
| COC(=O)C1=C(C)NC(C)=C(C(=O)OCC(C)C)C1c1ccccc1[N+](=O)[O-] (stereo unspecified) | active: 26.6 µM |  |
| CN(C)S(=O)(=O)n1cnc(-c2ccccc2)c1-c1ccccc1 | inconclusive [activator, full curve, poor fit] |  |
| Cc1ccc(COC(=O)CCCN=C2NS(=O)(=O)c3ccccc32)cc1 |  | inactive: 1.84% |
| CC(c1ccccc1)N1CCN(C(=O)CCl)CC1 (stereo unspecified) | inconclusive [activator, single point] |  |
| COc1cccc(OC)c1C(=O)NCCOc1cc(C)cc(C)c1 | inconclusive [activator, partial curve, poor fit] |  |
| Cc1ccccc1CC1(CO)CCCN(C(=O)Cc2c(F)ccc(F)c2F)C1 (stereo unspecified) | inconclusive [activator, single point] |  |
| Cc1cccc(Oc2nc(CN3CCOCC3)nc3sc4c(c23)CCCC4)c1 | inconclusive [activator, single point] |  |
